Some of the results follow.
Assays:
HSkMC = human skeletal muscle cells; test: cytotoxicity call (relative viability < 0.9); conditions: 10 µM
HepG2 = test: cytotoxicity call (relative viability < 0.9); conditions: 10 µM
S. aureus RN4220 = test: growth inhibition call (relative growth <= 0.2); conditions: 50 µM

C[C@H]1CN([C@@H](C)CO)C(=O)c2cc(C#CC3CCCCC3)cnc2O[C@@H]1CN(C)C(=O)Cc1ccccn1
inactive: cytotoxicity call (HSkMC) | cytotoxicity call (HepG2) | growth inhibition call (S. aureus RN4220)

CNC[C@@H]1Oc2cc(C#CCN(C)C)ccc2S(=O)(=O)N([C@@H](C)CO)C[C@@H]1C
inactive: cytotoxicity call (HSkMC) | cytotoxicity call (HepG2) | growth inhibition call (S. aureus RN4220)

Cc1ccc(S(=O)(=O)N(C)C[C@H]2OCCCC[C@@H](C)Oc3ccc(NC(=O)C4CCCCC4)cc3C(=O)N([C@@H](C)CO)C[C@@H]2C)cc1
inactive: cytotoxicity call (HSkMC) | cytotoxicity call (HepG2) | growth inhibition call (S. aureus RN4220)

C[C@H](O)C#Cc1ccc2c(c1)O[C@H](CN(C)C(=O)C1CCCCC1)[C@@H](C)CN([C@@H](C)CO)S2(=O)=O
inactive: cytotoxicity call (HSkMC) | cytotoxicity call (HepG2) | growth inhibition call (S. aureus RN4220)

CC(C)NC(=O)N(C)C[C@@H]1Oc2cc(-c3ccccc3F)ccc2S(=O)(=O)N([C@@H](C)CO)C[C@@H]1C
inactive: cytotoxicity call (HSkMC) | cytotoxicity call (HepG2) | growth inhibition call (S. aureus RN4220)

C[C@@H](CN1CCCCC1)C(=O)NN
inactive: cytotoxicity call (HSkMC) | cytotoxicity call (HepG2) | growth inhibition call (S. aureus RN4220)

Cc1noc(C)c1S(=O)(=O)N(C)C[C@@H]1OCc2cn(nn2)CCCC(=O)N([C@@H](C)CO)C[C@@H]1C
inactive: cytotoxicity call (HSkMC) | cytotoxicity call (HepG2) | growth inhibition call (S. aureus RN4220)

C[C@H](CO)N1C[C@H](C)[C@@H](CN(C)CC2CC2)OCCCC[C@H](C)Oc2ccc(NC(=O)NC3CCCCC3)cc2C1=O
inactive: cytotoxicity call (HSkMC) | cytotoxicity call (HepG2) | growth inhibition call (S. aureus RN4220)

C[C@H]1CN([C@@H](C)CO)C(=O)c2cc(NC(=O)Cc3cn(C)c4ccccc34)ccc2O[C@@H]1CN(C)Cc1ccc(C(F)(F)F)cc1
inactive: cytotoxicity call (HSkMC) | cytotoxicity call (HepG2) | growth inhibition call (S. aureus RN4220)

COC[C@H]1CCCNC1
inactive: cytotoxicity call (HSkMC) | cytotoxicity call (HepG2) | growth inhibition call (S. aureus RN4220)

Reference: the antibiotic and cytotoxicity screens of Wong et al. (2023)
